Results from PubChem BioAssay AID463173 (ICCB-Longwood Screening Facility, Harvard Medical School, 2010).
Screen size: about 52,000 compounds; about 4,300 (8.3%) were called active. Rule as the data show it: active = survival mostly below about 52% (no sharp cut-off); inactive = mostly above about 56%. The list shows a part of the results.

Each compound was assayed on DeltatarO mutant (assay: S. aureus survival, RN4220 and DeltatarO strains – OD600, teichoic acid synthesis inhibitors, primary screen (AID 463173)). Details: S. aureus RN4220 wild type/DeltatarO growth, OD600, 18 h, stronger effect = lower value, screened at 18.75 µg/mL (by protocol).
For `CCCn1cc(S(=O)(=O)c2cccc(Cl)c2)c(=O)c2cc(F)c(N3CCCC3)cc21`, the survival was inactive: 83%. For `CC1(C)CC(=O)C(C(=O)/C=C/c2ccco2)C(=O)C1`, the survival was inactive: 95%. `CCOC(=O)c1cc(-c2ccc(C)cc2)n(CC(=O)Nc2ccc(OC)cc2OC)c1C` was tested, and the survival was inactive: 97%. With `Cc1ccc(NC(=O)CSc2nccn2C2CCCC2)cc1Cl` the survival was inactive: 99%. In the case of `COc1ccc(C(=O)CSc2nccc(=O)[nH]2)cc1`, the survival is reported as inactive: 83%. `Cc1cc2ncn(S(=O)(=O)c3ccc(S(=O)(=O)N(C)C)cc3)c2cc1C` was tested, and the survival was inactive: 93%. For `N#C/C(=C\c1ccc(-c2cccc(Cl)c2)o1)C(=O)Nc1cccc(C(F)(F)F)c1`, the survival was inactive: 118%. With `Cc1oc2ncnc(N3CCOCC3)c2c1C(=O)NCc1ccc(Cl)cc1` the survival was inactive: 94%. For `Fc1ccc(N2CCN(c3ncnc4[nH]ncc34)CC2)cc1`, the survival was inactive: 95%. For `CC(C)OCCCNC(=O)CN1C(=O)c2ccccc2Sc2ncccc21`, the survival was inactive: 93%. In the case of `O=C(Nc1cccc2c1CCCC2)N1CCOc2ccc(Cl)cc21`, the survival is reported as inactive: 45%. In the case of `CN1c2ccccc2N(C)C1c1cccs1`, the survival is reported as inactive: 89%. In the case of `CCCC(=O)Nc1ccc2nc(SCC(=O)N3CCOCC3)sc2c1`, the survival is reported as inactive: 80%. `Cc1nn2c(=O)cc(COC(=O)c3ccc(NC(=O)COc4ccccc4F)cc3)nc2s1` was tested, and the survival was inactive: 100%. For `Cc1nc2c(c(C)nn2C(C)(C)C)c(C)c1CCC(=O)Nc1ccc(F)cc1`, the survival was inactive: 77%. For `CC(=O)NC(CC(=O)O)c1ccc(F)cc1` (stereo unspecified), the survival was inactive: 86%. `Cc1ccc(CNC(=O)Cn2c3ncccc3c(=O)n2-c2ccc(C)cc2)cc1` was tested, and the survival was inactive: 116%. `CC(C)c1cc(-c2nc(-c3cccc(Cl)c3)no2)n[nH]1` was tested, and the survival was inactive: 119%. For `COc1ccc(C)c2sc(N3CCN(C(=O)c4ccco4)CC3)nc12`, the survival was active: 17%. `CCOc1ccc(CNC(=O)CSc2c3c(nc4ccc(Cl)cc24)CCCC3)cc1` was tested, and the survival was inactive: 70%. With `COCCCNC(=O)c1ccc(Cn2c(=O)c3cccn3c3cccnc32)cc1` the survival was inactive: 70%. `Cc1nn(CC(=O)NCc2ccc(N(C)C)cc2)c(=O)c2nn(-c3ccccc3)c(C)c12` was tested, and the survival was inactive: 83%. For `COc1ccc(C(CC(=O)Nc2ccc(Br)cn2)N2Cc3ccccc3C2=O)cc1` (stereo unspecified), the survival was inactive: 75%. For `COc1ccccc1CCNC(=O)C1CCN(c2nnc(C)c3c(C)n(-c4ccc(C)cc4)nc23)CC1`, the survival was inactive: 85%. In the case of `Cn1ccnc1-c1ccc(-c2nccn2C)cc1`, the survival is reported as inactive: 83%. In the case of `Cc1ccc(Cn2c(CN3CCN(c4cccc(Cl)c4)CC3)nc3c2c(=O)n(C)c(=O)n3C)cc1`, the survival is reported as inactive: 107%. `O=[N+]([O-])c1ccc(O)c(-c2ccnc3cc(-c4ccccc4)nn23)c1` was tested, and the survival was active: 20%. In the case of `Cn1c(C(=O)NCc2cccc(Cl)c2)cc2oc3ccccc3c21`, the survival is reported as inactive: 85%. With `CC(=O)c1ccc(N2CCN(C(=O)CCCn3c(=O)[nH]c4ccsc4c3=O)CC2)cc1` the survival was inactive: 82%. `CCOc1ccc(CC(C(=O)NN)C(=O)NN)cc1CN(C)C` was tested, and the survival was inactive: 86%. With `Cc1ccc(NC(=O)CN2C(=O)CC(c3ccc(C)c(C)c3)=Nc3ccccc32)cc1` the survival was inactive: 78%. In the case of `CCC(CC)C(=O)Nc1cc(-c2nc3cccnc3s2)ccc1C`, the survival is reported as active: 57%. `Cc1cccc(C)c1OC(=O)CSc1nnc(-c2ccc3c(c2)OCO3)o1` was tested, and the survival was inactive: 77%. In the case of `COc1ccc(Nc2c(-c3ccsc3)nc3nc(C)cc(C)n23)cc1`, the survival is reported as inactive: 92%. In the case of `Cc1c(C(=O)O)sc2nc(-c3ccccc3)cn12`, the survival is reported as inactive: 101%. For `COc1ccc(CCNC(=O)c2c(C)oc3ncn(CC(C)C)c(=O)c23)c(OC)c1`, the survival was inactive: 95%. In the case of `O=C(NC1CCCCC1)C(c1ccncc1)N(CC1CCCO1)C(=O)C(F)(F)F` (stereo unspecified), the survival is reported as inactive: 78%. `CCCNc1nc(Cl)nc(Cl)n1` was tested, and the survival was active: 62%. `Cc1ccc2c(=O)cc(C(=O)Nc3c(C(=O)c4ccc(F)cc4)oc4ccccc34)oc2c1C` was tested, and the survival was inactive: 65%. For `CSc1nn(CC(=O)Nc2cc(C)ccc2C)c(N)c1S(=O)(=O)c1ccccc1`, the survival was inactive: 63%. In the case of `O=C(Nc1nnc(S(=O)(=O)N2CCCCCC2)s1)c1ccc(Cl)cc1`, the survival is reported as inactive: 62%. `COc1ccc(NC(=O)CC(C)S(=O)(=O)c2cc3c(cc2C)NC(=O)CO3)cc1OC` (stereo unspecified) was tested, and the survival was inactive: 88%. In the case of `CC(C)CC(=O)OCc1cc(=O)n2nc(C3CCCCC3)sc2n1`, the survival is reported as inactive: 89%. `COc1ccccc1CNC(=O)C1CCN(c2nnc(C)c3c(C)n(-c4ccccc4)nc23)CC1` was tested, and the survival was inactive: 104%. In the case of `CCOC(=O)c1c(-c2ccccc2)oc2ccc(OCc3cccc(Br)c3)cc12`, the survival is reported as active: 38%. `O=C1CCSC2(C(=O)N(Cc3ccc(F)cc3)c3ccccc32)N1c1cccc(F)c1` (stereo unspecified) was tested, and the survival was inactive: 94%. For `CCN1C(=O)c2ccccc2S(=O)c2ccc(C(=O)NCc3ccc(Cl)cc3)cc21` (stereo unspecified), the survival was inactive: 51%. `O=C(Cn1cc(C(=O)c2cccs2)c2ccccc21)Nc1ccc(Br)cc1` was tested, and the survival was inactive: 127%. In the case of `COc1cccc(C(c2sc3nc(-c4ccco4)nn3c2O)N2CCN(C)CC2)c1` (stereo unspecified), the survival is reported as inactive: 88%. For `COc1ccc(CNC(=O)CN(C)S(=O)(=O)c2ccc3c(c2)c(=O)n(C)c(=O)n3C)cc1`, the survival was inactive: 144%. `COc1ccc2[nH]c(=O)c(C(c3nnnn3Cc3ccccc3)N(C)C3CCCCC3)cc2c1` (stereo unspecified) was tested, and the survival was inactive: 68%. In the case of `COc1ccc(C(=O)Oc2cc(-c3ccc(OC)c(OC)c3)cc(=O)c3c(C)oc(C)c23)cc1`, the survival is reported as inactive: 81%. `CCS(=O)(=O)Nc1ccc(-c2cn3c(C)csc3n2)cc1` was tested, and the survival was inactive: 88%. For `COC(=O)c1c(C)sc(-c2c(-c3ccc(OC)c(F)c3)[nH]c3c2c(=O)n(C)c(=O)n3C)c1O`, the survival was inactive: 120%. For `CCSc1nc2ccccc2c(OCc2cc(C(=O)OC)ccc2OC)c1C(=O)OC`, the survival was active: -12%. With `CC(C)C(=O)Nc1nnc(S(=O)(=O)N2c3ccccc3CC2C)s1` (stereo unspecified) the survival was inactive: 87%. In the case of `CC1(C)Cc2ccccc2-c2nc(NN)[nH]c(=O)c21`, the survival is reported as inactive: 67%. In the case of `CCCOc1cccc(C(=O)Nc2cccc(NC(=O)c3ccc(Cl)cc3Cl)c2)c1`, the survival is reported as inactive: 88%. For `Cc1ccc(C(C)C)c(OCC(=O)Nc2ccc(O)c(-c3nc4cc(Cl)ccc4o3)c2)c1`, the survival was inactive: 73%. `CCc1ccccc1NC(=O)Cn1ccn(Cc2ccccc2)c(=O)c1=O` was tested, and the survival was inactive: 80%. `O=C(NC1CCS(=O)(=O)C1)c1ccccc1C(=O)c1ccccc1` (stereo unspecified) was tested, and the survival was inactive: 87%. For `COc1ccc(NC(=O)CCc2nnc3n(Cc4ccc(C)cc4)c(=O)c4ccccc4n23)cc1`, the survival was inactive: 59%. For `CC1CCCCN1C(=O)CCS(=O)(=O)c1cc2c(cc1Cl)NC(=O)CO2` (stereo unspecified), the survival was inactive: 89%. For `COc1cccc(CNCCCSc2nnnn2C)c1OC`, the survival was inactive: 73%. `Cc1cccc(C(=O)N2CCc3cc(CNS(=O)(=O)c4ccc(F)c(Cl)c4)ccc32)c1` was tested, and the survival was inactive: 88%. For `O=C(Nc1ccccc1)N(Cc1cccc(Cl)c1)c1ccccn1`, the survival was active: 37%. In the case of `CC(=O)c1ccc(N2CCN(C(=O)Nc3ccc(C(C)C)cc3)CC2)cc1`, the survival is reported as inactive: 60%. In the case of `COc1ccc(CCNC(=O)c2ccc3c(c2)ncn3-c2ccc(C(C)C)cc2)cc1OC`, the survival is reported as inactive: 96%. In the case of `CC(C)c1ccc2occ(CC(=O)N(Cc3ccc(F)cc3)C3CCS(=O)(=O)C3)c2c1` (stereo unspecified), the survival is reported as inactive: 61%. `Cc1cc(/C(O)=C2\C(=O)C(=O)N(CCCN(C)C)C2c2ccc(O)cc2)ccc1OCC(C)C` (stereo unspecified) was tested, and the survival was inactive: 109%. For `Cn1c2ccccc2c2cnn(CC(=O)NCCCN3CCN(c4ccccc4F)CC3)c(=O)c21`, the survival was inactive: 80%. With `Cc1cc(N)n2ncc(-c3ccccc3)c2n1` the survival was inactive: 95%. `CCC(=O)NCC1COc2ccccc2O1` (stereo unspecified) was tested, and the survival was inactive: 91%. `COc1ccc(NS(=O)(=O)c2ccc3[nH]c4c(c3c2)CCCCC4)cc1` was tested, and the survival was inactive: 117%. With `CC(=O)Nc1c(C)nn(-c2ccccc2)c1N1CCC(C(=O)Nc2ccccc2F)CC1` the survival was inactive: 64%. For `CCOc1ccc(CNS(=O)(=O)c2ccc3c(c2)CCCN3C(C)=O)cc1`, the survival was inactive: 93%. For `Cc1ccc(C)c(NC(=O)C2CCN(c3cc(C)nc4c(-c5ccc(Cl)cc5)c(C)nn34)CC2)c1`, the survival was inactive: 87%. In the case of `COc1ccc(-n2cc(C(=O)Oc3cc(C)cc(C)c3)c3ccccc3c2=O)cc1`, the survival is reported as inactive: 107%. `COc1cccc(NC(=O)Cn2cc(C(=O)c3ccco3)c3ccccc32)c1` was tested, and the survival was inactive: 62%. For `O=C(CCSc1nc(-c2ccco2)cc(C(F)(F)F)n1)NC1CC1`, the survival was inactive: 88%. In the case of `CCOc1ccc(CN2C(=O)c3ccccc3C2C(=O)NCCc2ccc(OC)c(OC)c2)cc1` (stereo unspecified), the survival is reported as inactive: 88%. `COc1ccccc1NC(=O)C1=C(C)Nc2ncnn2C1c1cccn1C` (stereo unspecified) was tested, and the survival was active: 8%. With `CCOC(=O)c1c(S(=O)(=O)N2CCC(C(=O)Nc3ccc(F)cc3F)CC2)c(C)n(C)c1C` the survival was inactive: 78%. With `COc1ccc(CNC(=O)Cc2c(C)c3cc4c(C)coc4c(C)c3oc2=O)cc1OC` the survival was inactive: 67%. With `COc1ccc(Cn2c(CO)cnc2SCc2ccccc2C)cc1` the survival was inactive: 88%. `CC(C)c1ccc(NC(=O)Cn2cc(S(=O)(=O)Cc3ccccc3Cl)c3ccccc32)cc1` was tested, and the survival was inactive: 73%. In the case of `O=C(Nc1ccc2oc(-c3cccc(F)c3)nc2c1)c1ccc2ccccc2c1`, the survival is reported as inactive: 60%. For `Cc1cc(C)cc(NC(=O)c2cc(S(=O)(=O)N3CCc4ccccc43)cn2C)c1`, the survival was inactive: 63%. `COc1ccccc1CNC(=O)c1ccc2c(c1)N(Cc1c(F)cccc1Cl)C(=O)CS2` was tested, and the survival was active: 43%. In the case of `CCCCC(Sc1nc2cc3c(cc2c(=O)n1CCCC(=O)NCc1ccc2c(c1)OCO2)OCO3)C(=O)OCC` (stereo unspecified), the survival is reported as inactive: 82%. For `O=C(CSc1ncc(S(=O)(=O)c2ccc(Br)cc2)c(=O)[nH]1)Nc1ccc2c(c1)OCCO2`, the survival was inactive: 61%.
